# The BET-seq Pho4 binding data (Le et al. 2018)
# This is one part of the list. Values were computed here from the reads of four pooled replicates and scatter widely.
# Target: T1, Pho4 (S. cerevisiae) (UniProt P07270)
# T1 sequence: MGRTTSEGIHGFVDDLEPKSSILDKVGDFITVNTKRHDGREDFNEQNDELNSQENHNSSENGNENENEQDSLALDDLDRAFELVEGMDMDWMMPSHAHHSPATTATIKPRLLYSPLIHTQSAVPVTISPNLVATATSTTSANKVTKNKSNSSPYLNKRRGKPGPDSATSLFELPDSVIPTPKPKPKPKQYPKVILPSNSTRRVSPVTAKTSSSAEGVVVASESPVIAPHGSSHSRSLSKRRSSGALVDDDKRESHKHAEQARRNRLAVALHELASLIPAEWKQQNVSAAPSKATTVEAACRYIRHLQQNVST
# Test: relative binding free energy (BET-seq); higher = weaker binding
# Settings: reference: library average
row,Sequence,relative binding free energy
1,GAGTTCACGTGTCGTG,0.31 kcal/mol
2,GGTGGCACGTGCATTG,-0.07 kcal/mol
3,TGTGGCACGTGTATGG,0.01 kcal/mol
4,CGTTACACGTGGGTCT,0.05 kcal/mol
5,GGGAGCACGTGAAGTT,0.24 kcal/mol
6,GTTATCACGTGAGCGG,0.35 kcal/mol
7,TATGTCACGTGGTTGG,0.07 kcal/mol
8,ATCGTCACGTGTCTGG,0.08 kcal/mol
9,AGCTGCACGTGGAGGT,-0.06 kcal/mol
10,TCAGGCACGTGCGGTT,-0.17 kcal/mol
11,AGGTGCACGTGAGATG,0.23 kcal/mol
12,CTAGTCACGTGGGCTT,0.03 kcal/mol
13,TATCGCACGTGTGGTT,0.01 kcal/mol
14,GTTCGCACGTGTGTTC,0.07 kcal/mol
15,CTGTACACGTGCGGTT,-0.01 kcal/mol
16,GTGTTCACGTGCTAGT,0.16 kcal/mol
17,TTCATCACGTGAGGTA,0.39 kcal/mol
18,TGGGACACGTGGGGCC,0.03 kcal/mol
19,AATTACACGTGTGCTG,0.06 kcal/mol
20,TGAGGCACGTGTATGC,-0.09 kcal/mol
21,ATTTACACGTGATGGG,0.28 kcal/mol
22,GCGTGCACGTGTTGTT,0.14 kcal/mol
23,CTGATCACGTGTAGGT,0.11 kcal/mol

row,Sequence,relative binding free energy
1,TAGATCACGTGAAGGT,0.34 kcal/mol
2,TGTGTCACGTGTTCTC,0 kcal/mol
3,TTTAACACGTGCGTGT,-0.08 kcal/mol
4,GTTGACACGTGGTGCT,-0.08 kcal/mol
5,GATCACACGTGTGTAT,0.18 kcal/mol
6,GTATACACGTGGCGGT,0.09 kcal/mol
7,AGTTGCACGTGGGACT,-0.1 kcal/mol
8,TGATACACGTGGTTAA,-0.02 kcal/mol
9,AGTTGCACGTGGCTCT,-0.06 kcal/mol
10,AGTGCCACGTGTGGTC,-0.14 kcal/mol
11,CGGTTCACGTGAGGCT,0.25 kcal/mol
12,TTGATCACGTGGGCCG,0.01 kcal/mol
13,GTTGGCACGTGAGAGG,0.13 kcal/mol
14,GGGAACACGTGATAGT,0.21 kcal/mol
15,CGGTTCACGTGGGAAT,0.19 kcal/mol
16,GGTTTCACGTGTATAG,0.22 kcal/mol
17,GTGTACACGTGATAAG,0.25 kcal/mol
18,CTTGACACGTGTGTGA,-0.06 kcal/mol
19,GATATCACGTGATGAG,0.32 kcal/mol
20,TGGGCCACGTGAGGCT,0.08 kcal/mol
21,GTCGTCACGTGAATTT,0.42 kcal/mol
22,AATTTCACGTGACTGT,0.46 kcal/mol
23,AGGTGCACGTGTATGA,0 kcal/mol

row,Sequence,relative binding free energy
1,AACTGCACGTGGTTAG,-0.09 kcal/mol
2,TTTAGCACGTGACGTG,0.03 kcal/mol
3,AAATTCACGTGTTAAG,0.19 kcal/mol
4,ATGGTCACGTGCCTGG,0.05 kcal/mol
5,TATAGCACGTGGGCTG,-0.21 kcal/mol
6,AGGTACACGTGGGCGG,-0.02 kcal/mol
7,TGGGGCACGTGAAGAC,0.13 kcal/mol
8,AGTTACACGTGTTGCA,0.09 kcal/mol
9,ATGGACACGTGGCGAG,-0.07 kcal/mol
10,GGCGACACGTGTGTGA,0.29 kcal/mol
11,TTATTCACGTGTTATC,0.29 kcal/mol
12,CTGTGCACGTGTTGCG,-0.03 kcal/mol
13,TTTTGCACGTGGTCGA,-0.07 kcal/mol
14,CTAAGCACGTGGTTGT,-0.29 kcal/mol
15,TGCAACACGTGGATTT,0.29 kcal/mol
16,ACTGGCACGTGGGCGT,-0.21 kcal/mol
17,GGGGACACGTGAGGGC,0.32 kcal/mol
18,CGTTACACGTGGTGAG,-0.02 kcal/mol
19,GTTCGCACGTGTGTGG,0.05 kcal/mol
20,CTAAACACGTGTGGTT,-0.04 kcal/mol
21,TGAGGCACGTGAGAAG,-0.03 kcal/mol
22,CGTGGCACGTGAATGA,0.14 kcal/mol
23,TTGTTCACGTGGGAAA,0.22 kcal/mol

row,Sequence,relative binding free energy
1,TATCGCACGTGGGCGT,-0.22 kcal/mol
2,TTTGGCACGTGTAAGC,0.02 kcal/mol
3,TGTTGCACGTGGTTGC,-0.07 kcal/mol
4,CATAACACGTGGGAGT,-0.02 kcal/mol
5,GTGGCCACGTGAAATG,0.27 kcal/mol
6,AGCTTCACGTGGTGTA,0.19 kcal/mol
7,ATAAACACGTGCGGTA,0.2 kcal/mol
8,TGGATCACGTGGATTG,0.15 kcal/mol
9,TCAGTCACGTGATGAT,0.4 kcal/mol
10,GGTGGCACGTGGACAG,-0.06 kcal/mol
11,TTTGTCACGTGTAAAC,0.31 kcal/mol
12,TTACGCACGTGTGGGA,-0.06 kcal/mol
13,TATTTCACGTGGGGTA,0.15 kcal/mol
14,TGGTACACGTGTAGAA,0.13 kcal/mol
15,CGTAGCACGTGGTTTT,-0.04 kcal/mol
16,TCATTCACGTGATGTG,0.37 kcal/mol
17,GTTGGCACGTGACTGT,0.08 kcal/mol
18,GGAGACACGTGGTGTC,0.07 kcal/mol
19,GTAATCACGTGGGGTC,-0.04 kcal/mol
20,TGTTGCACGTGAGGTC,0.27 kcal/mol
21,TTGCTCACGTGATAGG,0.41 kcal/mol
22,GTGTTCACGTGTACTG,0.26 kcal/mol
23,CACATCACGTGTGGGT,0.12 kcal/mol

row,Sequence,relative binding free energy
1,TGTGGCACGTGAATCA,0.24 kcal/mol
2,GTTTGCACGTGTTACG,0.09 kcal/mol
3,CTTTTCACGTGCGTTT,0.23 kcal/mol
4,GTGTACACGTGTAAGG,0.18 kcal/mol
5,TTTGGCACGTGCCTTG,-0.07 kcal/mol
6,ATGGGCACGTGTTAAA,-0.17 kcal/mol
7,GAGTTCACGTGCAAGG,0.36 kcal/mol
8,GGGGACACGTGTGAGA,0.21 kcal/mol
9,GTTTACACGTGAGTAT,0.42 kcal/mol
10,CTGCTCACGTGGGTTG,0.05 kcal/mol
11,GGGTCCACGTGGGATG,-0.06 kcal/mol
12,AGGGACACGTGAATGG,0.28 kcal/mol
13,GGGGCCACGTGGGTGT,-0.2 kcal/mol
14,GCTATCACGTGTGGAG,0.33 kcal/mol
15,GGTTACACGTGGGTCG,-0.06 kcal/mol
16,TGGGACACGTGGAGTT,0.03 kcal/mol
17,CGGAGCACGTGGAGTT,-0.19 kcal/mol
18,TATAGCACGTGTTGAA,0.01 kcal/mol
19,TAAGTCACGTGGTGAT,0.07 kcal/mol
20,TGTCGCACGTGCTATT,-0.16 kcal/mol
21,ATGCTCACGTGGGGGG,0 kcal/mol
22,GGGCACACGTGAATGG,0.26 kcal/mol
23,GGAATCACGTGTTAGG,0.06 kcal/mol
